“And” between values parts separate entries of the source, which are not always exact repeats. Equal entries are not always repeated. At least one read-out could not be matched to a standard name with certainty.
Legend:
root-knot nematode [1] = assay: Residual Root-Knot Nematicidal Activity; format: in vivo, Meloidogyne incognita; conditions: Table 3, 10 ppm
Procedure: (§1) Compounds of this invention were tested as follows for nematicidal and anthelmintic activity as dust formulations (initial and residual activity) and as acetone/water formulations (systemic activity). The formulations are described above.
The ability of nematicidal compounds of the invention to control root-knot nematode infestations in soil over a period of time after treatment was evaluated. Dust formulations of test compound (5%) were incorporated into soil samples at test compound rates of 5 and 10 ppm. Subsequently, the treated soil samples were inoculated with nematode inoculum at weekly intervals, and Knot Index and Percent Control determined on seedlings planted in the soil samples. Specifically, soil treated with test compound was placed in 7.6 cm diameter fiber pots and stored in a greenhouse. At one, two and four weeks post-treatment, the appropriate number of pots was infested with root-knot nematode eggs and larvae. A cucumber or tomato seedling was planted in each pot and evaluated approximately two weeks after the soil infestation to obtain the test results reported in Tables 3 and 3a appended.

lesion nematode = assay: Lesion Nematode Test; format: in vivo; conditions: Table 5
Procedure: as §1
The procedure was substantially the same as in the stunt nematode test described above except that pea seedlings were used. The results (Table 5 appended) show good control with many of the compounds at the application rates tested as compared with untreated samples (no control). "Percent Control" is defined as follows: [formula]

[2] = tested on: root-knot nematode (Meloidogyne incognita); assay: Initial Root-Knot Nematicidal Activity; format: in vivo; conditions: Table 2
Procedure: as §1
The activity against root-knot nematode (Meloidogyne incognita) was determined by incorporating the compound of the invention in nematode infested soil at rates in the range of 10 ppm to 0.078 ppm of compound. Several tomato or cucumber seedlings were planted in the nematode infested soil. Two weeks after planting the test pots were evaluated to ascertain the degree of galling (swelling) on the roots of the plants, indicating the control provided by the test chemical.
The results expressed as precent control (determined by knot index) are set forth as averages in Table 2 (appended). Knot index is a numerical designation assigned at evaluation, having the following meanings:
Percent control is related to knot index as follows:
When the Knot Index is between 0 and 1 it is further subdivided as follows to indicate how close the percent control is to 75% or 100%: […]

stunt nematode = assay: Stunt Nematode Test; format: in vivo; conditions: Table 4a; rate 5 ppm
Procedure: as §1
The procedure was substantially the same as in the […] seedling, with subsequent inoculation of the soil with combined larvae and adult stunt nematodes. The samples were evaulated approximately four weeks after infestation. […] "Percent control" means the difference between average population counts between untreated and treated samples, divided by average population count of untreated sample, multiplied by 100.

root-knot nematode [3] = assay: Soil Mobility against root-knot nematode; format: in vivo, Meloidogyne incognita; conditions: Table 7a; 5% dust, 5 ppm; TOP container
Procedure: as §1
The ability of nematicidal compounds of the invention to move through nematode-infested soil […] infested soil, and subsequently eluting the soil with 15 cm of water (equivalent to 15 cm of rainfall) into a series of two or more pots of untreated, but nematode-infested, soil. Specifically, the pots were 8 cm diameter plastic pots containing a 10 cm^3 layer of sand over a coarse grade filter paper disc. Sufficient soil was placed over the sand to fill the pots, and a second filter paper disc was placed over the soil. Each test compound-treated pot was nested over a series of two or more pots containing untreated, but nematode-infested soil, also containing sand filter paper discs as described for the treated soil pots. Fifteen cm of water was slowly dripped into the top pots and the pots were allowed to drain for 16-18 hours to remove excess water. The top filter of each pot was then removed and the pots were planted with a cucumber or tomato seedling. […] "Knot Index" and "Percent Control" are as defined in the initial root-knot nematode tests above.

[4] = inoculation 1 week after treatment
[5] = inoculation 2 weeks after treatment

| Structure (SMILES) | Percent Control ([2]; Application Rate 0.312 ppm) | Percent Control (stunt nematode) | Percent Control (lesion nematode; rate 2.5 ppm) | Percent Control ([2]; Application Rate 0.625 ppm) | other results |
| --- | --- | --- | --- | --- | --- |
| FC(F)=C(F)CCSC1=NCCS1 [Compound 1, 2-(3,4,4-trifluoro-3-butenylthio)-4,5-dihydrothiazole] | – | – | – | – | Percent Control (root-knot nematode [1]; [4]): 99%; Percent Control (root-knot nematode [1]; [5]): 44% and 75%; Percent Control (lesion nematode; rate 5 ppm): 82% and 52%; Percent Control ([2]; Application Rate 0.313 ppm): 98%; Percent Control ([2]; Application Rate 2.5 ppm): 100%; Percent Control ([2]; Application Rate 5.0 ppm): 100% |
| CSc1nnc(SCCC(F)=C(F)F)s1 [Compound 2, 2-methylthio-5-(3,4,4-trifluoro-3-butenylthio)-1,3,4-thiadiazole] | – | – | – | – | Percent Control (root-knot nematode [1]; [4]): 96%; Percent Control (root-knot nematode [1]; [5]): 38%; Percent Control (root-knot nematode [1]; inoculation 4 weeks after treatment): 50%; Percent Control ([2]; Application Rate 5.0 ppm): 99% |
| FC(F)=C(F)CCSc1nc(Cl)ns1 [Compound 8, 3-chloro-5-(3,4,4-trifluoro-3-butenylthio)-1,2,4-thiadiazole] | 98% | – | – | – | – |
| FC(F)=C(F)CCSc1nnc(SCCC(F)=C(F)F)s1 [Compound 13, 2,5-di(3,4,4-trifluoro-3-butenylthio)-1,3,4-thiadiazole] | – | – | – | – | Percent Control ([2]; Application Rate 0.313 ppm): 79% |
| O=C(CSCCC(F)=C(F)F)OCCC(F)=C(F)F [Compound 18, (3,4,4-trifluoro-3-butenyl) (3,4,4-trifluoro-3-butenylthio)acetate] | – | – | – | – | Percent Control ([2]; Application Rate 2.5 ppm): 96% and 69%; Percent Control ([2]; Application Rate 5.0 ppm): 80% |
| FC(F)=C(F)CCSc1nsc(SCCC(F)=C(F)F)n1 [Compound 25, 3,5-di(3,4,4-trifluoro-3-butenylthio)-1,2,4-thiadiazole] | – | 89% and 56% | 79% | – | – |
| C=CCSc1nnc(SCCC(F)=C(F)F)s1 [Compound 31, 2-(2-propenylthio)-5-(3,4,4-trifluoro-3-butenylthio)-1,3,4-thiadiazole] | 69% and 44% | – | – | 63% | – |
| FC(F)=C(F)CCSc1nnc(SCc2ccccc2)s1 [Compound 32, 2-phenylmethylthio-5-(3,4,4-trifluoro-3-butenylthio)-1,3,4-thiadiazole] | 69% | – | 15% | 98% | – |
| FC(F)=C(F)CCSc1nnc(SCc2ccccc2F)s1 [Compound 34, 2-(2-fluorophenylmethylthio)-5-(3,4,4-trifluoro-3-butenylthio)-1,3,4-thiadiazole] | – | 88% and 56% | 58% and 55% | – | – |
| O=[N+]([O-])c1ccc(CSc2nnc(SCCC(F)=C(F)F)s2)cc1 [Compound 35, 2-(4-nitrophenylmethylthio)-5-(3,4,4-trifluoro-3-butenylthio)-1,3,4-thiadiazole] | 51% | 83% | 52% and 78% | 70% and 97% | – |
| FC(F)=C(F)CCSc1nnc(SCc2cccs2)s1 [Compound 36, 2-(2-thienylmethylthio)-5-(3,4,4-trifluoro-3-butenylthio)-1,3,4-thiadiazole] | 71% | 64% and 91% | – | 99% | – |
| FC(F)=C(F)CCSc1nc(-c2ccc(Cl)cc2)no1 [Compound 39, 3-(4-chlorophenyl)-5-(3,4,4-trifluoro-3-butenylthio)-1,2,4-oxadiazole] | – | – | – | 83% | Percent Control ([2]; Application Rate 1.25 ppm): 99% |
| CCCc1nnc(SCCC(F)=C(F)F)o1 [Compound 41, 2-propyl-5-(3,4,4-trifluoro-3-butenylthio)-1,3,4-oxadiazole] | 76% and 97% | – | – | 100% | – |
| FC(F)=C(F)CCSc1nnc(Cc2ccccc2)o1 [Compound 42, 2-phenylmethyl-5-(3,4,4-trifluoro-3-butenylthio)-1,3,4-oxadiazole] | 83% | – | – | 96% | – |
| FC(F)=C(F)CCSc1nnc(Cc2ccc(Cl)cc2)o1 [Compound 43, 2-(4-chlorophenylmethyl)-5-(3,4,4-trifluoro-3-butenylthio)-1,3,4-oxadiazole] | – | 76% | 78% | – | – |
| FC(F)=C(F)CCSc1nnc(-c2cccc(Cl)c2)o1 [Compound 48, 2-(3-chlorophenyl)-5-(3,4,4-trifluoro-3-butenylthio)-1,3,4-oxadiazole] | 56% | 66% | 78% | – | Percent Control (root-knot nematode [3]): 50% and 96% |
